Assay results: PMC4336329 (PLoS ONE, 2015)
In all, about 310,000 compounds went through this assay and about 14,000 (4.5%) showed an effect of 50% or more. Effects have a minus sign here. This is one part of the list.

What follows are compounds tested against human ether-à-go-go-related gene (hERG) potassium channel (human, UniProt Q12809) (assay: primary screen, population patch clamp on CHO cells stably expressing hERG).
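Also: peak tail current of the secondary pulse compared with the same well before compound.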

human ether-à-go-go-related gene (hERG) potassium channel, sequence (Q12809 whole entry, looked up): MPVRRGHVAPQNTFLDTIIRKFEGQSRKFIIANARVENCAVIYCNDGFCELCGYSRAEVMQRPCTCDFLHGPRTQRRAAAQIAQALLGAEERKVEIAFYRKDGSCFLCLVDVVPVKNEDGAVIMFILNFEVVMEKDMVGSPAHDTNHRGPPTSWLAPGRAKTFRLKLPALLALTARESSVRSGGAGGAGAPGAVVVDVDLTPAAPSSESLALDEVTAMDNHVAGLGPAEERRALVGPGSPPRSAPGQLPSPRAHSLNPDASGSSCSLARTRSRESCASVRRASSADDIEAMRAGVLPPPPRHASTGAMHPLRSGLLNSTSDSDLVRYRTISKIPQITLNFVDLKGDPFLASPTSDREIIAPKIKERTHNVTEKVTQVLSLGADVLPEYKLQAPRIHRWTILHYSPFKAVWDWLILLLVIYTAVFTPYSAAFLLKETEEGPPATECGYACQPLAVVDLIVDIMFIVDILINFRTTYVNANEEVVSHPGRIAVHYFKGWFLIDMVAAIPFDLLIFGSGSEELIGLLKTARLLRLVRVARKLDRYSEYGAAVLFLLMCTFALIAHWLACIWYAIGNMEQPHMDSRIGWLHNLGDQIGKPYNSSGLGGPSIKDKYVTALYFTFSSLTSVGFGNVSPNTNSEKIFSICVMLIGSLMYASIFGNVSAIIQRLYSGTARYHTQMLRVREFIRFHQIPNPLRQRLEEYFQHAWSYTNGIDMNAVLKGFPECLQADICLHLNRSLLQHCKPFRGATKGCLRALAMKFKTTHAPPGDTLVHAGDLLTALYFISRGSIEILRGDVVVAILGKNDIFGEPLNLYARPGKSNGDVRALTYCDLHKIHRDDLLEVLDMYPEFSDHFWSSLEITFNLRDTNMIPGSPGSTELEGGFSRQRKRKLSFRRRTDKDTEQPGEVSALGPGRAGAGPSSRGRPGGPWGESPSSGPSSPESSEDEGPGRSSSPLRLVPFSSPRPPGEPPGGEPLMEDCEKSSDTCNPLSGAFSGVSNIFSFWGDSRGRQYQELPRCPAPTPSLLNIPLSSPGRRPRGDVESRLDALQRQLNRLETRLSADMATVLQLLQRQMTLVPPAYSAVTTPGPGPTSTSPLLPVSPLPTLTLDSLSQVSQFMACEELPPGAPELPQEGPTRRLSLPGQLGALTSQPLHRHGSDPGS

SMILES | hERG current change (%, negative = inhibition) at 10uM [%]
CCN(CC(=O)NCc1cccs1)S(=O)(=O)c1ccccc1Cl | -11.3
Cc1nc(-c2ccccn2)sc1C(=O)Nc1ccc(Cl)c(Cl)c1 | -13.4
Brc1ccc(-c2csc(NC3=NCCCCC3)n2)cc1 | -3.95
COc1ccc(CNCc2cc(Cl)ccc2O)cc1.Cl | -24.9
COc1ccc(OC)c(C2CC(=O)N3CN(c4ccccc4)CSC3=C2C#N)c1 (stereo not drawn) | 9.38
COC(=O)c1ccc(Cn2c(O)c(N=O)c3ccccc32)o1 | 2.32
CCNc1nc(Oc2ccc(C(=O)OC)cc2)nc(N2CCOCC2)n1 | -0.413
O=C(c1ccccc1Nc1ccc(SC(F)F)cc1)N1CCCCCC1 | 8.04
CN(C(=O)CN1CCN(c2ccc([N+](=O)[O-])cn2)CC1)c1ccccc1 | -49.1
CCCc1nnc(-c2ccc(OC)cc2)o1 | 1.84
O=C(NCCn1cccn1)C1CCC(=O)N(CCc2ccc(Cl)cc2)C1 (stereo not drawn) | 5.51
CC(=O)c1ccc(OCCCN2CCCCC2)cc1.O=C(O)C(=O)O | -22.2
O=C1/C(=C\c2cccnc2)SC(=S)N1C1CCS(=O)(=O)C1 (stereo not drawn) | -1.96
CCn1c(/C=C/Nc2ccccc2)[n+](CC)c2ccc(C(=O)OCC(F)(F)F)cc21.[I-] | -81.6
O=C1CCc2ccccc2N1Cc1ccccc1 | -8.95
CCCOc1ccc(N2C(=O)CC(N3CCC(O)(c4cccc(C(F)(F)F)c4)CC3)C2=O)cc1 (stereo not drawn) | -21.9
NC(=O)N/N=C/c1ccc(OCc2cccc(Cl)c2)cc1 | 26.8
O=[N+]([O-])c1ccc(N2CCOCC2)cc1NC(c1ccccc1)c1ccccc1 | 1.88
CC1Cc2ccccc2N1C(=O)Cn1c(=O)oc2cc(S(=O)(=O)NC3CCCC3)ccc21 (stereo not drawn) | -13.5
O=C(CCc1ccccc1)NCC(c1ccco1)N1CCc2ccccc21 (stereo not drawn) | -56.2
Cc1cccc(N2CCN(C(=O)c3cccs3)CC2)c1C | -10.6

SMILES | hERG current change (%, negative = inhibition) at 10uM [%]
Cc1cc(SCC(=O)OCC(=O)N(C)c2ccccc2)nc2ccccc12 | -22.8
CCOC(=O)C(=NCCCN(C)C)NNc1ccc(Br)cc1 | -35.3
Cl.O=C1c2cccc3cccc(c23)C(=O)N1CC1CCN(CC(O)COc2ccc3ccccc3c2)CC1 (stereo not drawn) | -46.1
COc1ccc(C(C(=O)NC2CCCC2)N(C(=O)c2ccco2)c2cc3c(cc2C(C)=O)OCO3)cc1OC (stereo not drawn) | 8.95
CC(C)=CCc1c(O)cc(O)c2c(=O)c3c(CC=C(C)C)c(O)ccc3oc12 | 11.7
COc1ccc2nc(NC(=O)c3ccccc3F)sc2c1 | -0.416
CCCn1c(SCC(=O)c2c[nH]c3ccccc23)nnc1-c1ccncc1 | 4.4
Cc1ccc(NC(=O)Cn2cnc3ccccc32)cc1C | -3.44
C#CCOC(=O)C(NC(=O)c1ccccc1)=C(C)C | 5.56
O=C(/C=C/c1ccc2c(c1)OCO2)Nc1nc2ccc(F)cc2s1 | 32.5
CC(C)c1ccc(N(CC(=O)NCc2ccc(F)cc2)C(=O)c2snc(C(N)=O)c2N)cc1 | 6.89
COc1ccc(CNC(=O)COc2ccc(S(=O)(=O)NC(C)C)cc2)cc1 | -0.279
COc1cc(OC)cc(-c2c(C#Cc3ccsc3)c3cc(-c4cnc(OC)nc4)ccc3n2C)c1 | 2.52
O=C(CSc1nnc(Cc2cccs2)n1C1CCCCC1)N1CCCc2ccccc21 | -24.4
CSc1ccccc1NC(=O)COC(=O)c1ccccc1O | 4.27
COC(=O)c1ccc(Cl)c(NC(=O)CSc2nnc(-c3ccncc3)o2)c1 | 18.9
O=C1c2ccccc2NC(c2ccc(Br)o2)N1O (stereo not drawn) | -3.37
Cc1cc(C)cc(C(=O)N2CC(C)SC2=Nc2cccc(S(=O)(=O)N(C)C)c2)c1 (stereo not drawn) | -25.3
COc1ccc(/C(N)=N/OC(=O)CC2CCCCC2)cc1OC | -5.6
CCC(C(=O)NC1CCCC1)N(C(=O)Cn1nnc(-c2ccc(C)o2)n1)c1cccc(O)c1 (stereo not drawn) | 15
CCC(=O)Nc1ccc(C(=O)NNC(=O)C(c2ccccc2)c2ccccc2)cc1 | 12.8

SMILES | hERG current change (%, negative = inhibition) at 10uM [%]
O=S(=O)(NCC(c1ccc2c(c1)OCO2)N1CCOCC1)c1ccc(F)cc1 (stereo not drawn) | -6.81
O=C(CN1C(=O)C2CC=CCC2C1=O)Nc1ccc(S(=O)(=O)NC2=NCCCCC2)cc1 (stereo not drawn) | 1.02
O=C(Nc1ccccc1F)Nc1ccc([N+](=O)[O-])cc1Cl | 18.4
COc1ccc(NC(=O)CSCC(=O)N(C)Cc2c(F)cccc2Cl)cc1 | -22.1
COc1ccc2[nH]c(C(=O)Nc3ccccc3Cl)cc2c1 | 6.19
C=CCn1c(SCC(=O)Nc2ccc(-c3nc4ccc(C)cc4s3)cc2)nnc1-c1ccncc1 | -2.88
CCn1nnc(NC(=S)NC(=O)c2ccc(-c3cccc(Cl)c3)o2)n1 | -9.45
CCOC(=O)C1CCN(C(=O)c2cc(S(=O)(=O)N3CCCCCC3)ccc2OC)CC1 | -50.8
CCCN(C(=O)Cc1coc2cc(C)c(C)cc12)c1c(N)n(Cc2ccccc2)c(=O)[nH]c1=O | -20.2
O=C(c1ccc2ncsc2c1)N1CCCC(C(F)(F)F)C1 (stereo not drawn) | 4.69
COc1ccc(C2CC3(CC(C)(C)NC(SC)=N3)Oc3cc(O)cc(C)c32)cc1.I (stereo not drawn) | -74.3
CCCOc1ccc(/C=C/C(=O)OCC(=O)N(C)c2c(N)n(Cc3ccccc3)c(=O)[nH]c2=O)cc1OCC | 34.2
CN[C@H](C)[C@H](O)c1ccccc1 | 14.9
COc1ccccc1OCC(=O)Nc1ccc(S(=O)(=O)Nc2nc(C)cc(C)n2)cc1 | 6.71
N#C/C(=C\c1ccccn1)c1nc2ccccc2s1 | 15.5
Cc1c(C(=O)NCCSCc2c(F)cccc2Cl)cnn1-c1ccc(Cl)cc1 | -22
Cc1cccc(NC(=O)c2cc([N+](=O)[O-])ccc2N2CCN(C)CC2)c1 | -61.9
O=C1N/C(=C/c2cccn2-c2ccc(F)cc2)C(=O)N1Cc1ccccc1F | 13.8
Cc1ccc(-n2nc3c(=O)n(CC(=O)NC(C)CCc4ccccc4)nc(C)c3c2C)cc1 (stereo not drawn) | 6.77
COc1ccc(CN2CCNC(=O)C2CC(=O)NCC2CCOCC2)c(F)c1 (stereo not drawn) | 17.3
Cc1ccc(NC2=C([N+](=O)[O-])CS(=O)(=O)C2)cc1 | 2.58

SMILES | hERG current change (%, negative = inhibition) at 10uM [%]
COc1ccc(-n2nnc3c(=O)n(CC(=O)Nc4ccc5c(c4)OCCO5)cnc32)cc1OC | 0.0199
O=C1OC(CCl)CN1Cc1ccc([N+](=O)[O-])cc1 (stereo not drawn) | -27.9
COc1ccc(S(=O)(=O)N2CCC(C(=O)OCC(=O)c3ccccc3)CC2)cc1[N+](=O)[O-] | -2.2
COc1cccc(-c2nc(CS(=O)CC(=O)NCc3ccccc3Cl)c(C)o2)c1 (stereo not drawn) | -22.6
CC(NC(=O)CNC(=O)C1O[C@@H]2OC(C)(C)O[C@@H]2[C@H]2OC(C)(C)O[C@@H]12)C(=O)O (stereo partly drawn) | 23
O=C(NC(=S)Nc1ccc(S(=O)(=O)Nc2nccs2)cc1)c1ccc(F)cc1 | 23
CCOC(=O)N1CCN(c2nc3ccc(C(=O)c4ccccc4)cc3n3cnnc23)CC1 | -43.9
CCn1c(SCC(=O)NNC(=O)c2ccc(OC)cc2)nnc1C(C)C | 11
CCOC(=O)c1ccc(NC(=S)N(CCCN2CCN(CC)CC2)Cc2ccco2)cc1 | -76.5
Cc1cccc(C(=O)NC(Oc2ccccc2)C(Cl)(Cl)Cl)c1 (stereo not drawn) | 17.7
Cc1sc2ncnc(SCC(=O)Nc3nc(-c4ccc(F)c(F)c4)cs3)c2c1C | 22.9
O=C(Nc1ccnc(-c2ccncc2)n1)c1ccc(Cl)cc1 | 19.7
CCCC(=O)C1CCN(Cc2ccccc2)CC1 | 5.21
O=C(O)C12CC3CC(C1)CC(n1ncc(NCc4ccco4)c(Cl)c1=O)(C3)C2 | 4.41
CC(C)=NNc1nc2c(c(=O)[nH]c(=O)n2C)n1CCCc1ccccc1 | 13.6
Cc1ccc(CNC(=O)c2ccc(N3CCC4(CC3)CC(c3ccccc3)=NO4)c(NC(=O)c3ccccc3)c2)cc1 | 7.61
CCC1(CC)C(=O)N(C)C(=O)NC1=Nc1ccc(OC)cc1 | 8.99
COC(=O)CNC(=O)C1CCC(CNS(=O)(=O)c2cccc3nsnc23)CC1 (stereo not drawn) | 8.55
N#Cc1c(N)nc2c(c1-c1ccco1)CCCCC2 | 10.4
O=C(Nc1ccc(S(=O)(=O)Nc2nccs2)cc1)c1nn(-c2ccccc2)ccc1=O | 11
CCN1C[C@@]2(COC)C3[C@@H](OC)[C@H]4[C@@H]1[C@@]3(C1C[C@H]3[C@H](OC(C)=O)C1[C@]4(OC(C)=O)C[C@H]3OC)[C@@H](OC)C[C@H]2OC(C)=O (stereo partly drawn) | -1.43
